# In PubChem BioAssay AID720507 (National Center for Advancing Translational Sciences (NCATS), 2013):
# In all, about 2,300 compounds went through this assay and about 140 (6.1%) were called active. Inconclusive means that the source gave no clear call. Such entries were picked first, then a sample of the others. Calls follow the shape of the dose curve; as a rule, active = well fitted activation curve with a large enough effect; inconclusive = small, poorly fitted or top-dose-only effect; inactive = flat fitted curve, though single readings scatter. No potency is given beside an inconclusive call; the fits are too rough.
# Biological target: D(2) dopamine receptor (Homo sapiens) (UniProt P14416)
# Sequence of UniProt P14416 (P14416 whole entry, looked up): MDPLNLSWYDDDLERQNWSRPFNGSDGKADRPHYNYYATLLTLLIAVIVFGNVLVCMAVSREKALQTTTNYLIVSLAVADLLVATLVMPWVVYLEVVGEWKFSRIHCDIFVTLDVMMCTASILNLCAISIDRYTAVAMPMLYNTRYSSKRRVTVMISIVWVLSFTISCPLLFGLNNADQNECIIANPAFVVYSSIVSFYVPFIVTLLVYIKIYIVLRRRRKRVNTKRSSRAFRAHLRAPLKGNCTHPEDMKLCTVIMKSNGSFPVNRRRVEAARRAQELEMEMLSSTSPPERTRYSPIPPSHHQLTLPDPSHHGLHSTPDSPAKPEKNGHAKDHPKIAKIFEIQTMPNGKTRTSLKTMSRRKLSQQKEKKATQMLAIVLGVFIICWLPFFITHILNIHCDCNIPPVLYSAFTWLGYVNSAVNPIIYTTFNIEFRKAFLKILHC
# Experiment: qHTS of D3 Dopamine Receptor Agonist: D2 Dopamine Receptor B-arrestin Agonist Counterscreen; also: nearly all actives have a fitted effect of over 70% in size; as to activation: % of control where 0% means no effect
# Conditions: DiscoveRx PathHunter D2 beta-arrestin, luminescence, 90 min; series mostly up to 76.9 µM; activation: at the top concentration
# Procedure, shortened: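 Cells were seeded and left to attach overnight at 37 deg C, then stimulated with compounds in DMSO for 90 minutes. Chemiluminescent detection reagent was added and the signal read after 1 hour at ambient temperature.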
# Potency is read from the fitted curve at half-maximal effect; tags tell the direction and shape of the fitted curve.
SMILES,activation,Potency
CCOC(=O)C(NCCc1ccccc1)(NC(=O)CC)C(F)(F)F (centres undefined),inactive: 0.553%,–
COc1ccc2cc3cc(C(=O)NCCN4CCc5ccccc5C4)sc3nc2c1,–,"inconclusive [activator, full curve, poor fit]"
COc1cccc(OC)c1OCC(O)CN1CCN(c2ccccc2)CC1 (centres undefined),–,"inconclusive [activator, full curve]"
NC(=NC(=O)c1ccc(Cl)cc1)N1N=CCC1c1ccccc1 (centres undefined),inactive: 4.64%,–
OC(COc1c(F)cc(Br)cc1F)CN1CCN(c2ccc(F)cc2)CC1 (centres undefined),–,"inconclusive [activator, single point]"
c1ccc(N2CCN(Cc3cnc(N4CCOCC4)s3)CC2)cc1,–,"inconclusive [activator, partial curve, poor fit]"
Fc1ccc(F)c(CN2CCN(c3ncccn3)CC2)c1,–,active: 3.16 µM
O=C(c1ccco1)N1CCN(Cc2ccc(Br)cc2)CC1,–,active: 15.8 µM
CC(NC(=O)C(=O)N1CCOCC1)C(c1cccs1)N1CCN(c2ccccc2)CC1 (centres undefined),inactive: 6.25%,–
COc1cc(CCC(C)NCc2ccccc2)ccc1O (centres undefined),–,"inconclusive [activator, single point]"
O=C(Cc1c(F)cccc1Cl)NNC(=O)c1ccncc1,inactive: -0.71%,–
CCOC(=O)N1CCN(C/C(C)=C/c2ccccc2)CC1,–,"inconclusive [activator, partial curve]"
CCOC(=O)N1CCC(N2CCN(Cc3ccccc3)C(CCO)C2)CC1 (centres undefined),–,"inconclusive [activator, partial curve]"
O=C1C=C(c2ccccc2)C[C@@H](c2ccc(Cl)cc2)C1,inactive: -1.75%,–
O=C(c1ccco1)N1CCN(Cc2cccc(C(F)(F)F)c2)CC1,–,active: 31.6 µM
CCN(C(=O)CSc1nnc(-c2ccc(C)cc2)n1N)c1c(N)n(Cc2ccccc2)c(=O)[nH]c1=O,inactive: -5.96%,–
O=C(C[n+]1cc(-c2ccccc2)n2c1CCC2)Nc1nc(-c2ccc(F)cc2)cs1,–,"inconclusive [activator, full curve]"
Cc1ccc(NC(=O)OCCN2CCN(Cc3ccccc3)CCC2=O)cc1,–,"inconclusive [activator, full curve]"
CC(CCc1ccccc1)NC(=O)CN1CCc2ccccc2C1 (centres undefined),–,"inconclusive [activator, partial curve, poor fit]"
COc1ccc([C@H]2CC(=O)C=C(c3ccc4cc[nH]c4c3)C2)cc1,inactive: -2.43%,–
CCN1CCN(c2ncnc3scc(-c4ccc(OC)cc4)c23)CC1,–,active: 39.8 µM
COc1ccc(OCC(O)CN2CCN(c3ncccn3)CC2)cc1 (centres undefined),–,"inconclusive [activator, full curve, poor fit]"
CCOC(=O)C(NC(=O)c1ccccc1Cl)(Nc1ccc(C(F)(F)F)cc1)C(F)(F)F (centres undefined),inactive: -2.43%,–
Cc1cccc(C(=O)NNC(=S)NC(=O)c2cccs2)c1,inactive: -9.82%,–
CCCCN(C(=O)c1ccc(N2C(=O)c3ccccc3C2=O)cc1)c1c(N)n(CC(C)C)c(=O)[nH]c1=O,inactive: 26.8%,–

SMILES,activation,Potency
CCC(=O)Oc1ccc(C(=O)Nc2ccc3c(c2)OCO3)cc1,inactive: 1.27%,–
CCOc1ccc(CC(=NCCc2ccccc2)C2=C(O)CC(C)(C)CC2=O)cc1OCC,inactive: 6.46%,–
O=C(c1cccs1)N1CCC(N2CCN(c3ccccc3)CC2)CC1,–,"inconclusive [activator, full curve]"
Cc1ccc(CN2CCN(c3ccccc3)CC2)o1,–,"inconclusive [activator, full curve, poor fit]"
Nc1nc(CN2CCN(c3ccccn3)CC2)nc(Nc2ccc(Cl)cc2)n1,–,active: 17.8 µM
Nc1nc(CN2CCN(c3ccccn3)CC2)nc(Nc2ccc(F)cc2)n1,–,"inconclusive [activator, full curve]"
CCOC(=O)c1ccc(NC(=O)CN2CCN(C(=O)c3ccco3)CC2)cc1,–,"inconclusive [activator, partial curve]"
NC[C@H](Cc1ccccc1)NCCCCC1CCCCC1,inactive: 10.5%,–
c1ccc(CN2CCN(c3ncnc4nc[nH]c34)CC2)cc1,–,"inconclusive [activator, partial curve]"
COCCn1c(=O)[nH]c2cc(C(=O)NCCN3CCN(c4cccc(Cl)c4)CC3)ccc2c1=O,–,"inconclusive [activator, full curve]"
CC(C)(C)c1ccc(OCC(O)CN2CCN(c3ccccn3)CC2)cc1 (centres undefined),–,active: 15.8 µM
Fc1ccccc1N1CCN(Cc2cccnc2)CC1,–,"inconclusive [activator, full curve]"
Cc1ccc(S(=O)(=O)NCC(c2ccc3c(c2)OCO3)N2CCN(c3ccccc3)CC2)cc1 (centres undefined),–,"inconclusive [activator, partial curve]"
CC(C)CC(=O)N1CCN(Cc2ccc3c(c2)OCO3)CC1,–,"inconclusive [activator, partial curve]"
CN(c1ccc(C(=O)N2CCN(Cc3ccccc3)CC2)cc1)S(=O)(=O)c1ccccc1,–,"inconclusive [activator, partial curve]"
O=C1N=C(N2CCOCC2)S/C1=C/c1ccc(-c2ccc(F)cc2)o1,–,"inconclusive [activator, partial curve]"
Cc1cccc(Nc2nc(N)nc(CN3CCN(c4ccccc4)CC3)n2)c1,–,"inconclusive [activator, partial curve]"
Clc1cccc(CN2CCN(c3ncccn3)CC2)c1Cl,–,active: 50.1 µM
[O-]/[N+](=C/c1ccccc1)c1ccccc1,inactive: -3.01%,–
Cc1ccc(NC(=O)NCCN2CCN(c3ccccc3)CC2)cc1Cl,–,"inconclusive [activator, partial curve]"
COc1ccc(CN2CCN(c3ccccn3)CC2)cc1OCc1ccccc1,–,"inconclusive [activator, full curve]"
OCCC1CN(C/C=C/c2ccco2)CCN1Cc1ccccc1 (centres undefined),inactive: 0.985%,–
CC(=O)N1CCC(N2CCN(c3ccccc3F)CC2)CC1,–,"inconclusive [activator, full curve]"
O=C(c1ccccc1)[C@@H]1[C@@H](C(=O)c2ccc(F)cc2)[C@@]2(C(=O)Nc3ccccc32)[C@H]2c3ccccc3C=CN12,inactive: -0.355%,–
CCCCCCCC/C=C\CCCCCCCC(=O)NCCc1ccc(O)c(O)c1,–,active: 15.8 µM

SMILES,activation,Potency
O=C(c1cccs1)N1CCN(Cc2ccccc2)CC1,–,"inconclusive [activator, full curve]"
CCN1CCN(c2ncnc3sc(C)c(-c4ccccc4)c23)CC1,–,active: 17.8 µM
Nc1nc(N)nc(-c2ccc(Cl)c(Cl)c2)n1,inactive: -4.26%,–
O=C(CCN1CCN(c2ccccc2)CC1)N/N=C/c1ccccc1O,–,"inconclusive [activator, full curve]"
CCCN1CCN(CCCNC(=O)c2ccc3c(=O)n(CCc4ccccc4)c(=O)[nH]c3c2)CC1,inactive: 16.7%,–
c1ccc2sc(SCSc3nc4ccccc4s3)nc2c1,–,"inconclusive [activator, full curve, poor fit]"
Cn1c(CCN2CCN(c3ccccn3)CC2)nc2cc(NC(=O)COc3ccc(Cl)cc3)ccc21,–,"inconclusive [activator, full curve]"
c1ccc(COc2ccc(CN3CCN(c4ccccn4)CC3)cc2)cc1,–,active: 11.2 µM
Cc1ccc(Nc2nc(N)nc(CN3CCN(c4ccccc4)CC3)n2)cc1Cl,–,active: 20 µM
OC(COCC1COc2ccccc2O1)CN1CCN(c2ccccc2)CC1 (centres undefined),–,"inconclusive [activator, partial curve]"
COc1cccc(CNc2ncnc3ccc(-c4c(C)noc4C)cc23)c1,inactive: 17.7%,–
CCOc1cc(CN2CCN(c3ncccn3)CC2)ccc1OC,–,"inconclusive [activator, partial curve]"
O=C(CCN1CCN(c2ccccc2)CC1)Nc1ccc(OCc2ccccc2)cc1,–,"inconclusive [activator, full curve, poor fit]"
C[C@]12CCC(O)CC1CCC1C2CC[C@]2(C)C(c3cc(C(F)(F)F)n[nH]3)CCC12 (some centres undefined),–,"inconclusive [activator, full curve, poor fit]"
O=C(Cn1ncc2c([nH]c3ccccc32)c1=O)NCCCN1CCN(c2ccccc2)CC1,–,"inconclusive [activator, partial curve]"
CC(=O)c1ccc(NC(=O)CN2CCN(c3ncccn3)CC2)cc1,–,"inconclusive [activator, partial curve]"
CC1CC(C)CN(CCCNC(=O)CN2C(=O)CSc3ccc(S(=O)(=O)N4CCOCC4)cc32)C1 (centres undefined),inactive: 7.6%,–
CN(C)S(=O)(=O)c1cc(NC(=O)CN2CCN(c3ccccc3F)CC2)ccc1Cl,–,"inconclusive [activator, partial curve]"
Nc1nc(CN2CCN(c3ccccc3)CC2)nc(Nc2ccc(Cl)cc2)n1,–,active: 17.8 µM
O=C(c1ccco1)N1CCN(Cc2cccc3ccccc23)CC1,–,"inconclusive [activator, full curve]"
O=C(c1ccco1)N1CCN(Cc2ccc(F)cc2Cl)CC1,–,"inconclusive [activator, partial curve]"
COc1cccc(CN2CCN(c3ncccn3)CC2)c1,–,active: 0.631 µM
COc1ccc(-c2cc(C)no2)cc1S(=O)(=O)NCCCN1CCN(c2ccccc2)CC1,–,"inconclusive [activator, full curve, poor fit]"
COc1ccc(Oc2cc(C)c3ccccc3n2)cc1,–,"inconclusive [activator, full curve]"
